Data reported in PubChem BioAssay AID588855 (National Center for Advancing Translational Sciences (NCATS), 2011).
About 5,000 (1.2%) of roughly 410,000 compounds were called active. The inconclusive results got no clear call from the source; some entries with a clear call stand among them for comparison. Calls come from the whole dose curve; as a rule, active = well fitted inhibition curve with a large enough effect; inconclusive = small, poorly fitted or top-dose-only effect; inactive = no such curve, though single readings can be large or run the other way. Where the call is inconclusive, the potency comes from a doubtful curve fit.

assay: qHTS for Inhibitors of TGF-b; details: HepG2 CAGA-GFP TGF-b/SMAD3 reporter, GFP fluorescence, 18 h, TGF-beta stimulated, 500 pg/mL final; series mostly up to 46.1 µM; note: nearly all actives have a fitted effect of over 65% in size
How it was run: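 Per well, imaged GFP fluorescence of HEPG2 CAGA-GFP cells gives the signal; cells get compound, then TGF-beta (500 pg/mL final), 18 h at 37 degrees C; %Activity versus -TGF-beta and +DMSO controls.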
Potency is the fitted concentration of half-maximal effect; tags give direction and shape of the fitted curve.

| SMILES | Potency |
| --- | --- |
| CCc1ccc(NS(=O)(=O)c2cc(Br)cc3c2N(C(C)=O)CC3)cc1 | inactive |
| CC(=O)Nc1c(C)nn(-c2ccccc2)c1N1CCC(C(=O)Nc2ccc(C)cc2Cl)CC1 | inactive |
| O=[N+]([O-])C(/C=C(\Cl)[N+](=O)[O-])=C(N1CCCCC1)N1CCCCC1 | inconclusive: 11.2 µM [inhibitor, single point] |
| CCn1c2ccc(F)cc2c2nnc(NN)nc21 | inconclusive: 6.31 µM [inhibitor, single point] |
| CCc1ccc(C(CC(=O)c2ccc(Cl)cc2)C(=O)O)cc1 (centres undefined) | inconclusive: 0.282 µM [inhibitor, full curve, poor fit] |
| O=S(=O)(c1cccs1)N1CCN(CCc2ccccc2)CC1 | inconclusive: 35.5 µM [inhibitor, single point] |
| CC(=O)Nc1ccc(C)cc1-c1nc2ccccc2n(Cc2cccc(Br)c2)c1=O | inconclusive: 1.26 µM [inhibitor, full curve, poor fit] |
| CN(C)c1ccc(/C=C/c2ccnc3ccccc23)cc1Br | inconclusive: 22.4 µM [inhibitor, single point] |
| BrC(=C\c1ccccc1)/C=N/N1CCN(c2ccccc2)CC1 | inconclusive: 22.4 µM [inhibitor, single point] |
| O=C(CSc1n[nH]c(-c2ccccn2)n1)Nc1ccc(Cl)cc1 | inactive |
| Cc1cccc(NC(=O)CN2C(=O)S/C(=C\c3cc(C)n(C)c3C)C2=O)c1 | inconclusive: 17.8 µM [inhibitor, single point] |
| CCCCNC(=O)c1onc(CSc2cccc3ccccc23)c1C(=O)O | inconclusive: 12.6 µM [inhibitor, partial curve, poor fit] |
| Cc1noc(-c2ccc(N(C)Cc3ccccc3)c([N+](=O)[O-])c2)n1 | inconclusive: 35.5 µM [inhibitor, single point] |
| CCCOC(=O)c1ccc(NC(=O)CSC2=Nc3ccccc3C3CC=NN23)cc1 (centres undefined) | inactive |
| Clc1ccc(OCCCN2CCCCC2)c(Br)c1 | inactive |
| CNc1cncc(-c2ccc(OC)cc2)n1 | inactive |
| Cn1nc(C(F)(F)F)c(C#N)c1N1CCN(c2ccccc2F)CC1 | inactive |
| Cc1cc(=O)c2ccccc2n1Cc1ccccc1 | inconclusive: 20 µM [inhibitor, partial curve, poor fit] |
| Cc1nn(C)cc1/C=N\NC(=O)c1csc2c1CCCC2 | inactive |
| COC(=O)Cc1ccc(NC(=S)NC(C)(C)C)cc1 | inconclusive: 14.1 µM [inhibitor, single point] |
| C1=Cc2ccccc2/C1=C\c1cc[cH-]c1.[Fe+2].c1cc[cH-]c1 | inconclusive: 14.1 µM [inhibitor, single point] |
| COC(=O)c1ccc(C(=O)OC)c(NC(=O)CSc2cccc[n+]2[O-])c1 | active: 3.55 µM |
| Cc1ccc(O)c(NC(=O)C2CC(c3c(F)cccc3Cl)=NO2)c1 (centres undefined) | inactive |

| SMILES | Potency |
| --- | --- |
| O=C(CCS(=O)(=O)c1ccc2c(c1)NC(=O)CS2)NCCc1ccc(Cl)cc1 | inactive |
| CCC(=O)Nc1ccc(C(=O)NNC(=O)c2cccc(C)c2)cc1 | inactive |
| C[C@H](CO)N1C[C@H](C)[C@@H](CN(C)Cc2ccc(Cl)c(Cl)c2)OCCCC[C@H](C)Oc2ccc(NC(=O)CCC(F)(F)F)cc2C1=O | inconclusive: 35.5 µM [inhibitor, single point] |
| Nc1c(S(=O)(=O)c2ccccc2)c2nc3ccccc3nc2n1/N=C/c1cccc(O)c1 | inconclusive: 2 µM [inhibitor, partial curve, poor fit] |
| CN(C)CCNC(=O)c1cccc(-c2cnc3c(NC=O)cc(-c4cccs4)cn23)c1 | inconclusive: 35.5 µM [inhibitor, single point] |
| O=C(CN1C(=O)C2C3C=CC(C4CC34)C2C1=O)NCc1ccco1 (centres undefined) | inactive |
| N=C1/C(=C/c2ccc(OCc3ccccc3F)cc2)C(=O)N=C2SC(CC(=O)N3CCOCC3)=NN12 | inactive |
| CC(C)n1c(SCC(=O)N2c3ccccc3Sc3ccccc32)nc2c1c(=O)n(C)c(=O)n2C | inactive |
| O=C(CN1c2cccc3cccc(c23)S1(=O)=O)Nc1ccccc1 | inconclusive: 0.708 µM [inhibitor, full curve, poor fit] |
| Cc1nc(C(=O)NC2CCCCC2)sc1C1(C)CC(c2cccc([N+](=O)[O-])c2)=NO1 (centres undefined) | inconclusive: 0.0891 µM [inhibitor, full curve, poor fit] |
| Nc1ccc2c(c1)C(=O)c1ccccc1-2 | inactive |
| CCN1CCCCC(=N/O)/C(=N/O)CCCC1 | inactive |
| CCOc1cc(CNn2cnnc2)cc(Cl)c1OCC(=O)NC(C)(C)C | inactive |
| Cn1c(C(=O)N2CCC(C(=O)NCCc3ccc(S(N)(=O)=O)cc3)CC2)cc2sccc21 | inactive |
| CCOC(=O)c1ccc(NC(=O)c2cc3c(n(-c4ccc(C)cc4)c2=O)CC(C)(C)CC3=O)cc1 | inconclusive: 0.282 µM [inhibitor, full curve, poor fit] |
| O=C(N/N=C/c1ccc(Cl)c([N+](=O)[O-])c1)c1cc(-c2ccc3c4c(cccc24)CC3)n[nH]1 | inconclusive: 10 µM [inhibitor, partial curve, poor fit] |
| Cc1ccc(CCNC(=O)c2ccc(CSCc3ccc(C)cc3)o2)cc1 | inconclusive: 35.5 µM [inhibitor, single point] |
| CC(C)NC(C(=O)Nc1cc(Cl)cc(Cl)c1)c1ccccc1 (centres undefined) | inconclusive: 11.2 µM [inhibitor, partial curve] |
| O=C(CSc1nc2c(oc3ccccc32)c(=O)[nH]1)Nc1cccc(Cl)c1 | active: 11.2 µM |
| N#Cc1ccc(-c2csc(NNC(=O)c3ccc(Br)cc3)n2)cc1 | inconclusive: 7.08 µM [inhibitor, partial curve, poor fit] |
| O=C1OC[C@@H]2CCCN2C(=O)[C@H](CC(=O)N(CCO)Cc2ccccc2)C/C=C\CC[C@H]1Cc1ccc(F)cc1 | inactive |
| C[C@@H]1CCCCO[C@@H](CN(C)S(C)(=O)=O)[C@@H](C)CN([C@H](C)CO)C(=O)c2cc(N(C)C)ccc2O1 | inactive |
| O=C(Nc1ccc2c(c1)C(=O)NC2=O)c1cc(Cl)ccc1Cl | inactive |

| SMILES | Potency |
| --- | --- |
| CCCCOC(=O)Nc1ccc(S(=O)(=O)Nc2ccc([N+](=O)[O-])cc2)cc1 | active: 7.94 µM |
| O=C(/C=C/c1ccco1)Nc1ccc(Cl)c(-c2nc3cc(Cl)ccc3o2)c1 | inconclusive: 5.62 µM [inhibitor, partial curve] |
| Cc1ccc(NC(=O)C2CCN(c3nn4c(=O)cc(C)nc4s3)CC2)cc1 | inconclusive: 0.282 µM [inhibitor, full curve, poor fit] |
| Cc1nc(SCC(=O)Nc2ccc(F)cc2)c(C#N)c(C)c1CC(=O)c1ccc(Br)cc1 | inconclusive: 5.62 µM [inhibitor, single point] |
| Cc1c(Cl)cccc1NC(=O)CSc1cc(-c2ccccc2)ncn1 | inconclusive: 0.112 µM [inhibitor, full curve, poor fit] |
| Cc1ccc(-c2nnc(Nc3ccc(O)cc3)c3ccccc23)cc1S(=O)(=O)NCC1CCCO1 (centres undefined) | active: 6.31 µM |
| Cc1c(C(=O)Nc2ccccc2N2CCN(C)CC2)oc2ccc(F)cc12 | inconclusive: 12.6 µM [inhibitor, single point] |
| CCCCNC(=S)Nc1cccc(C(C)=O)c1 | inconclusive: 12.6 µM [inhibitor, single point] |
| Cc1cc2ccccc2n1-c1ccc(C(=O)N2CCC(C(=O)NCc3ccc(F)cc3)CC2)s1 | inconclusive: 11.2 µM [inhibitor, partial curve, poor fit] |
| COC(=O)c1c(SCC(=O)Nc2ccccc2OC)[nH]c2ccccc2c1=O | inconclusive: 22.4 µM [inhibitor, partial curve, poor fit] |
| O=C(COc1ccccc1-c1ccccc1)N/N=C/c1cccc2ccccc12 | inconclusive: 11.2 µM [inhibitor, partial curve] |
| Cc1ccc(NC(=O)c2cc(-c3ccccc3)nn2-c2ccccc2)cc1 | inactive |
| CCc1nc(SCc2ccc(C(=O)OC)o2)c2c(=O)n(C)c(=O)n(C)c2n1 | inactive |
| Cc1cc(C)c(S(=O)(=O)Nc2cccc(-c3cn4ccccc4n3)c2)c(C)c1 | inconclusive: 12.6 µM [inhibitor, partial curve, poor fit] |
| CC(C)C(=O)Nc1ccc(-c2ccc3nncn3n2)cc1 | inactive |
| CCO[C@@H]1OC(C(=O)Nc2ccccc2)=C[C@H](c2csc3ccccc23)[C@H]1CCCO | inconclusive: 14.1 µM [inhibitor, single point] |
| Cc1c(CN2CCC(CO)(CCOc3ccccc3)CC2)[nH]c2c(Cl)cccc12 | inconclusive: 22.4 µM [inhibitor, single point] |
| Cc1ccc(NC(=O)Cn2cc(S(=O)(=O)NC(C)C)c(S(=O)(=O)NC(C)C)c2)cc1Cl | inconclusive: 25.1 µM [inhibitor, single point] |
| COc1ccc(Cn2ccc3nc(C)c(C(=O)Nc4ccc(OC)cc4OC)cc3c2=O)cc1 | inactive |
| COc1cc2c(-c3ccc4cc[nH]c4c3)c(-c3ccsc3)oc(=O)c2cc1OC | inconclusive: 3.16 µM [inhibitor, full curve, poor fit] |
| COc1ccc(NC(=O)/C(Cl)=C(/Cl)S(=O)Cc2ccc(Cl)cc2)cn1 (centres undefined) | active: 2.24 µM |
| CCc1nc2ccc(C(=O)NCCCN3CCCC3=O)cn2c1N(C)CCC(C)C | inactive |
| Cc1ccc(N(C(=O)c2cccc(C)c2)S(=O)(=O)c2ccc(Cl)cc2)cc1 | inconclusive: 4.47 µM [inhibitor, full curve, poor fit] |
